Reference: the supplement of paper PMC4967469
By IC50 is meant the dose at which the fit gives 50% viability; where the fit passes the top or lowest dose, that dose stands as a limit. AUC sums up the same curve from the lowest dose to the 256-fold higher top dose; the more sensitive the line, the further below 1. For part of these data: The top dose, if marked as inferred, is not printed in the source and was worked back from the curve model. For part of these data: Drugs with an entry number were screened twice under separate entries, and the two screens often disagree.

Tests used:
Test in all cases: Viability of human cancer cell lines after 72 h of drug (GDSC screen)
[1] = compound: Cc1ccc(NC(=O)c2ccc(CN3CCN(C)CC3)cc2)cc1Nc1nc(-c2cccnc2)cs1 [Masitinib]; details: top dose 20 µM
Description: (§1)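 Human cancer cell lines in 384-well plates, medium with 10% serum, drug for 72 h over a 256-fold dose range (nine 2-fold or five 4-fold steps up to the top dose). Adherent lines were fixed and stained with the nucleic acid dye Syto60, suspension lines read with resazurin; signal relative to control wells, capped at 0 and 100%. One two-parameter sigmoid per drug and line, fitted in a mixed model over all curves with the slope shared within a line.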

[2] = compound: O=C(/C=C/c1ccc(CN(CCO)CCc2c[nH]c3ccccc23)cc1)NO [LAQ824]; details: top dose 1.024 µM; top dose inferred
Description: as §1

[3] = compound: COc1cc(N2CCC(C(N)=O)CC2)ccc1Nc1nc(N)c(Cl)c(Nc2ccccc2S(=O)(=O)C(C)C)n1 [HG-5-88-01]; details: top dose 10 µM; top dose inferred
Description: as §1

[4] = compound: CN(NC(=O)CC(=O)NN(C)C(=S)c1ccccc1)C(=S)c1ccccc1 [Elesclomol]; details: top dose 0.2 µM; top dose inferred
Description: as §1

[5] = compound: CCCC(=O)OCc1ccc(OC(=O)/C=C(C)/C=C/C=C(C)/C=C/C2=C(C)CCCC2(C)C)cc1 [VNLG/124]; details: top dose 5.12 µM; top dose inferred
Description: as §1

[6] = compound: Cc1c(N)nc([C@H](CC(N)=O)NC[C@H](N)C(N)=O)nc1C(=O)N[C@H](C(=O)N[C@H](C)[C@@H](O)[C@H](C)C(=O)N[C@H](C(=O)NCCc1nc(-c2nc(C(=O)NCCC[S+](C)C)cs2)cs1)[C@@H](C)O)[C@@H](OC1OC(CO)C(O)C(O)C1OC1OC(CO)C(O)C(OC(N)=O)C1O)c1cnc[nH]1 [Bleomycin]
Description: as §1

[7] = compound: O=C(Nc1ccc(OC(F)(F)F)cc1)c1sccc1NCc1ccnc2ccccc12 [OSI-930]; details: top dose 10.24 µM
Description: as §1

[8] = compound: CC/C(=C(\c1ccccc1)c1ccc(OCCN(C)C)cc1)c1ccccc1 [Tamoxifen]; details: top dose 5 µM
Description: as §1

[9] = compound: O=S(=O)(O)c1ccc2cc(N=Nc3cc(S(=O)(=O)O)c4cccnc4c3O)ccc2c1 [NSC-87877]; details: top dose 16 µM; top dose inferred
Description: as §1

[10] = compound: O=C(Nc1cccc(Nc2ncc(Br)c(NCCc3cnc[nH]3)n2)c1)N1CCCC1 [BX-912]; details: top dose 10.24 µM; top dose inferred
Description: as §1

[11] = top dose 50 µM, screen: GDSC drug entry 1378, top dose inferred
[12] = top dose 64 µM, screen: GDSC drug entry 190

| Cell Line | AUC [1] | IC50 [1] [µM] | AUC [2] | IC50 [2] [µM] | AUC [3] | IC50 [3] [µM] | AUC [4] | IC50 [4] [µM] | AUC [5] | IC50 [5] [µM] | AUC [6, 11] | IC50 [6, 11] [µM] | AUC [6, 12] | IC50 [6, 12] [µM] | AUC [7] | IC50 [7] [µM] | AUC [8] | IC50 [8] [µM] | AUC [9] | IC50 [9] [µM] | AUC [10] | IC50 [10] [µM] |
| --- | --- | --- | --- | --- | --- | --- | --- | --- | --- | --- | --- | --- | --- | --- | --- | --- | --- | --- | --- | --- | --- | --- |
| HARA (lung squamous cell carcinoma, adherent) | 0.869 | > 20 | 0.638 | 0.165 | 0.937 | > 10 | 0.509 | 0.0133 | 0.966 | > 5.12 | 0.608 | 6.52 | 0.281 | 0.852 | 0.97 | > 10.2 | 0.981 | > 5 | 0.977 | > 16 | 0.765 | 4.35 |
| HCC1395 (breast, adherent) | 0.951 | > 20 | 0.611 | 0.138 | 0.98 | > 10 | 0.571 | 0.0203 | 0.983 | > 5.12 | 0.617 | 7.03 | 0.164 | 0.29 | 0.985 | > 10.2 | 0.982 | > 5 | 0.984 | > 16 | 0.959 | > 10.2 |
| HCC1419 (breast, adherent) | 0.838 | > 20 | 0.422 | 0.0358 | 0.98 | > 10 | 0.568 | 0.0208 | 0.977 | > 5.12 | 0.974 | > 50 | 0.902 | > 64 | 0.943 | > 10.2 | 0.98 | > 5 | 0.982 | > 16 | 0.98 | > 10.2 |
